# Among all 39,000 compounds or so, about 220 (0.56%) showed activity. Some of the results follow.
# System: Escherichia coli K-12 BW25113
# Assay: relative growth (OD600 normalised to plate interquartile mean) (fraction); higher = less growth inhibition, active = 0.2 or less
# Conditions: 50 µM; LB; incubation time: overnight (16-24 h)
# 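Also: static incubation at 37 °C against the wild-type strain, values averaged over two biological replicates.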
row,SMILES,relative growth
1,CC(C)[Si](C#C[Si](C(C)C)(C(C)C)C(C)C)(O[C@H](C)c1cn([C@H](C)c2ccccc2)nn1)C(C)C,inactive: 0.959
2,C[C@H](CO)N1C[C@H](C)[C@@H](CN(C)C(=O)Nc2ccc3c(c2)OCCO3)OCc2cn(nn2)CCCC1=O,inactive: 0.986
3,CC(C)Cn1cnc2c(N)nc3ccccc3c21.Cl,inactive: 1.09
4,CC(C)(C)OC(=O)CC[C@]1(C(=O)NCCN2CCOCC2)COC(c2ccc(OCCCO)cc2)=N1,inactive: 0.88
5,C[C@@H]1CCCCO[C@H](CN(C)Cc2ccc(Cl)c(Cl)c2)[C@H](C)CN([C@@H](C)CO)C(=O)c2cc(NC(=O)NC3CCCCC3)ccc2O1,inactive: 1.02
6,Cc1cc(C(=O)N2CC[C@@]2(C)C(=O)NS(=O)(=O)c2ccc(C#N)cc2)nn1C,inactive: 1.02
7,COc1ccc(CN(C)C[C@H]2OCCCC[C@@H](C)Oc3ccc(NC(=O)CCC(F)(F)F)cc3C(=O)N([C@@H](C)CO)C[C@@H]2C)cc1,inactive: 0.995
8,C=CCN1C(=O)[C@]2(O[C@H](CCO)[C@@H]([Si](C)(C)c3ccc(OC)cc3)[C@@H]2C)c2cc(NC(=O)[C@H](C)O)ccc21,inactive: 0.992
9,CNC(=O)CN(C#N)c1nc(N(C)C)nc(N(C)C)n1,inactive: 0.941
10,CC1CCC(C(C)C)C(O)C1 (configuration not stated),inactive: 0.933
11,C[C@H](CO)N1C[C@H](C)[C@H](CN(C)S(=O)(=O)c2ccccc2)Oc2c(NC(=O)c3ccncc3)cccc2C1=O,inactive: 1
12,C[C@@H]1CCCCO[C@H](CN(C)C(=O)CCC(F)(F)F)[C@@H](C)CN([C@H](C)CO)C(=O)c2cc(NS(=O)(=O)c3cccs3)ccc2O1,inactive: 1.01
13,Cn1c(=O)c(F)c(Nc2ccc(I)cc2F)c2c(=O)n(C[C@@H](O)CO)cnc21,inactive: 1.02
14,C[C@@H]1CN([C@H](C)CO)C(=O)c2cc(NS(=O)(=O)c3cccs3)ccc2O[C@@H](C)CCCCO[C@H]1CN(C)C(=O)NC1CCCCC1,inactive: 1
15,CO[C@H]1CN(C)C(=O)c2cc(NC(=O)C3CC3)ccc2OC[C@@H](C)N(C(=O)CN2CCOCC2)C[C@H]1C,inactive: 0.991
16,C[C@@H]1CCCCO[C@H](CN(C)Cc2ccc(C(F)(F)F)cc2)[C@@H](C)CN([C@H](C)CO)C(=O)c2cc(NC(=O)CCCCCC(=O)Nc3ccccc3N)ccc2O1,inactive: 1.03
17,Cc1noc(C)c1NC(=O)Nc1ccc2c(c1)C(=O)N([C@H](C)CO)C[C@H](C)[C@@H](CN(C)C(=O)Nc1ccc(F)cc1)OCCCC[C@@H](C)O2,inactive: 0.985
18,C[C@@H]1CN([C@@H](C)CO)S(=O)(=O)c2ccc(C#CCN(C)C)cc2O[C@@H]1CN(C)Cc1cccnc1,inactive: 0.993
19,C[C@@H]1CN([C@@H](C)CO)C(=O)CCCn2cc(nn2)CO[C@@H]1CN(C)C(=O)Nc1ccc(N2CCN(C)CC2)cc1,inactive: 0.988
20,COC(=O)C[C@H]1CC[C@H]2[C@@H](COC[C@@H](O)CN2S(=O)(=O)c2ccccc2C)O1,inactive: 1.02
21,O=[N+]([O-])c1ccc(/C=C/CN(C/C=C/c2ccc([N+](=O)[O-])cc2)CCNS(=O)(=O)c2cccc3cnccc23)cc1,inactive: 1.03

row,SMILES,relative growth
1,C[C@@H]1CCCCO[C@H](CN(C)C(=O)Nc2ccccc2)[C@H](C)CN([C@H](C)CO)C(=O)c2cc(NC(=O)Cc3ccccc3)ccc2O1,inactive: 1
2,CN(C)Cc1cn(CC[C@@H]2CC[C@H](NC(=O)Cc3cccnc3)[C@H](CO)O2)nn1,inactive: 1.01
3,C[C@H](CO)N1C[C@H](C)[C@@H](CN(C)S(C)(=O)=O)Oc2ccc(NC(=O)c3ccncc3)cc2CC1=O,inactive: 1
4,C/C=C/c1ccc2c(c1)O[C@@H](CN(C)S(=O)(=O)c1ccccc1)[C@@H](C)CN([C@@H](C)CO)S2(=O)=O,inactive: 0.922
5,O=C(CCCN1CCC(O)(c2ccc(Br)cc2)CC1)c1ccc(F)cc1,inactive: 0.928
6,CC(C)N1C[C@H](C)[C@@H](CN(C)Cc2ccc(Oc3ccccc3)cc2)Oc2c(NC(=O)c3cccnc3)cccc2C1=O,inactive: 1.07
7,COc1ccc(S(=O)(=O)N(C)C[C@H]2Oc3ccc(NC(=O)Cc4ccccc4)cc3C(=O)N([C@@H](C)CO)C[C@@H]2C)cc1,inactive: 1.02
8,C[C@@H]1CCCCO[C@@H](CN(C)C(=O)Cc2ccccc2)[C@H](C)CN([C@@H](C)CO)C(=O)c2cc(NS(=O)(=O)c3ccc(Cl)cc3)ccc2O1,inactive: 1.02
9,NCC[C@H]1CC[C@@H](NC(=O)Nc2ccc(F)cc2)[C@H](CO)O1,inactive: 1.01
10,C[C@@H]1CN([C@H](C)CO)C(=O)c2cc(NC(=O)Nc3ccc(F)cc3)ccc2O[C@H]1CN(C)C(=O)Nc1cccc2ccccc12,inactive: 1.02
11,C[C@@H]1CCCCO[C@H](CN(C)CC2CCCCC2)[C@@H](C)CN([C@H](C)CO)C(=O)c2cc(NC(=O)C3CCCCC3)ccc2O1,inactive: 1.01
12,C[C@@H]1CN([C@@H](C)CO)C(=O)c2cc(NC(=O)CCCN(C)C)ccc2O[C@H]1CN(C)C(=O)Nc1ccc(F)cc1,inactive: 1
13,CCCNC(=O)N1[C@@H]2Cn3c(cccc3=O)[C@H]1[C@@H](C(=O)NCC(F)(F)F)[C@@H]2CO,inactive: 1
14,COc1ccc(S(=O)(=O)N(C)C[C@@H]2Oc3ncc(-c4ccncc4)cc3C(=O)N([C@@H](C)CO)C[C@H]2C)cc1,inactive: 1.01
15,CC(=O)N1CCCN(S(=O)(=O)N2CCOCC2)CC1,inactive: 1.02
16,N[C@@H](C(=O)O)c1cc(O)cc(O)c1,inactive: 1.02
17,O=C(C[C@H]1CC[C@@H]2[C@H](COC[C@@H](O)CN2C(=O)c2ccncc2)O1)NC1CCC1,inactive: 1.02
18,O=C1CNc2cc(C(=O)O)ccc2N1,inactive: 0.999
19,COc1ccc(S(=O)(=O)Nc2ccc3c(c2)C(=O)N([C@@H](C)CO)C[C@@H](C)[C@H](CN(C)C(=O)Nc2c(C)noc2C)OCCCC[C@H](C)O3)cc1,inactive: 1
20,CN(C)/C=C/C(=S)c1cccs1,inactive: 1.04
21,C[C@@H]1CCCCO[C@@H](CN(C)C(=O)c2ccncc2)[C@H](C)CN([C@H](C)CO)C(=O)c2cc(NS(=O)(=O)c3cn(C)cn3)ccc2O1,inactive: 0.99

row,SMILES,relative growth
1,COc1ccc(S(=O)(=O)N(C)C[C@H]2Oc3ccc(NS(=O)(=O)c4ccccc4)cc3CC(=O)N([C@H](C)CO)C[C@@H]2C)cc1,inactive: 1.01
2,Cc1noc(C)c1S(=O)(=O)Nc1ccc2c(c1)C(=O)N([C@@H](C)CO)C[C@@H](C)[C@@H](CN(C)CC1CC1)O2,inactive: 0.978
3,COc1ccc(NC(=O)N(C)C[C@H]2Oc3ncc(C#C[C@@H](C)O)cc3C(=O)N([C@@H](C)CO)C[C@H]2C)cc1,inactive: 0.993
4,C[C@@H]1CN([C@H](C)CO)C(=O)c2cccc(NC(=O)Nc3cccc4ccccc34)c2O[C@@H]1CN(C)Cc1ccccc1,inactive: 0.991
5,O=C(C[C@@H]1CC=CCCC(=O)OC[C@@H](Cc2c[nH]c3ccccc23)NC1=O)N[C@@H](CO)Cc1ccccc1,inactive: 1.01
6,Cc1noc(C)c1S(=O)(=O)Nc1ccc2c(c1)CC(=O)N([C@@H](C)CO)C[C@H](C)[C@H](CN(C)CC1CC1)O2,inactive: 0.991
7,C[C@H]1CN([C@@H](C)CO)C(=O)Cc2cc(NS(=O)(=O)c3cccs3)ccc2O[C@H]1CN(C)C(=O)Nc1cccc2ccccc12,inactive: 1
8,CO[C@@H]1CN(C)C(=O)c2ccc(NC(=O)Nc3ccc(Cl)cc3)cc2OC[C@H](C)N(C(=O)Nc2c(C)noc2C)C[C@@H]1C,inactive: 0.949
9,C[C@@H]1CCCCO[C@@H](CN(C)CC2CCCCC2)[C@@H](C)CN([C@@H](C)CO)C(=O)c2cc(NS(=O)(=O)c3ccc(Cl)cc3)ccc2O1,inactive: 0.986
10,C[C@H]1CN([C@@H](C)CO)C(=O)c2cccc(NS(=O)(=O)c3ccc(F)cc3)c2O[C@@H]1CN(C)Cc1ccncc1,inactive: 1.03
11,CCS(=O)(=O)Nc1ccc2c(c1)C(=O)N(C)C[C@@H](OC)[C@H](C)CN(Cc1nccs1)[C@@H](C)CO2,inactive: 0.987
12,C[C@@H]1C[C@H](O)/C=C/[C@H](O)[C@@H](O)CC(=O)O1,inactive: 0.987
13,O=C(CCCCCNC(=O)OCCCCO[C@H]1C[C@@H](c2ccc3c(c2)OCO3)C=C(C(=O)N2CCOCC2)O1)NO,inactive: 0.95
14,C[C@@H]1CN([C@H](C)CO)C(=O)Cc2cc(NC(=O)Nc3cccc4ccccc34)ccc2O[C@H]1CN(C)C(=O)Nc1ccc(C(F)(F)F)cc1,inactive: 1
15,COc1ccc(S(=O)(=O)Nc2ccc3c(c2)C(=O)N([C@H](C)CO)C[C@H](C)[C@@H](CN(C)S(=O)(=O)c2cn(C)cn2)OCCCC[C@H](C)O3)cc1,inactive: 1.01
16,C[C@H]1CN([C@@H](C)CO)C(=O)c2c(c3ccccc3n2C)-c2ccccc2CO[C@@H]1CN(C)Cc1cccc2c1OCCCO2,inactive: 1.03
17,C[C@H]1CN([C@@H](C)CO)S(=O)(=O)c2ccc(C#Cc3cccc(F)c3)cc2O[C@H]1CN(C)C(=O)CN1CCOCC1,inactive: 1.01
18,COc1ccc(CN(C)C[C@H]2Oc3c(NS(=O)(=O)c4c(C)noc4C)cccc3C(=O)N([C@H](C)CO)C[C@H]2C)cc1,inactive: 0.837
19,Cc1ccc(S(=O)(=O)N(C)C[C@@H]2OCCCC[C@@H](C)Oc3ccc(NC(=O)c4ccccc4)cc3C(=O)N([C@H](C)CO)C[C@@H]2C)cc1,inactive: 1.06
20,C[C@@H]1CN([C@@H](C)CO)C(=O)Cc2cc(NC(=O)Cc3cn(C)c4ccccc34)ccc2O[C@@H]1CN(C)Cc1ccc(C(F)(F)F)cc1,inactive: 1.03
